# Experimental data as given in PubChem BioAssay AID624417 (National Center for Advancing Translational Sciences (NCATS), 2012).
# About 6,400 (1.6%) of roughly 410,000 compounds were called active. This list was built around the results that the source calls inconclusive (neither active nor inactive); the mix of calls is not that of the screen. Calls come from the whole dose curve; as a rule, active = well fitted inhibition curve with a large enough effect; inconclusive = small, poorly fitted or top-dose-only effect; inactive = no such curve, though single readings can be large or run the other way. No potency is given beside an inconclusive call; the fits are too rough.
# Biological target: Glucagon-like peptide 1 receptor (Homo sapiens) (UniProt P43220)
# Sequence of UniProt P43220 (P43220 whole entry, looked up): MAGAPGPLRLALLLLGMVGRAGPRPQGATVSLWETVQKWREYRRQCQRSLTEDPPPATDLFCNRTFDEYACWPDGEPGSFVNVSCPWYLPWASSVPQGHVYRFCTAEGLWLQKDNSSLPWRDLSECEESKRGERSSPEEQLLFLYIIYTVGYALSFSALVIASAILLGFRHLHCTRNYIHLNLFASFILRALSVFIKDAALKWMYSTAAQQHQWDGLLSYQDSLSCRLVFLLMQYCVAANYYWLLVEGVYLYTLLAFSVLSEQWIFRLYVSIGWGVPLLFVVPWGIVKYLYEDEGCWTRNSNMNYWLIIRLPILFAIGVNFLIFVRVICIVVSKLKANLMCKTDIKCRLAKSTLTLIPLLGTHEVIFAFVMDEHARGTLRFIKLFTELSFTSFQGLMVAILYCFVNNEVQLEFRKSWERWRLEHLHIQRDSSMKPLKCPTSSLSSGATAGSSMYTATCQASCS
# Test: qHTS of GLP-1 Receptor Inverse Agonists (Inhibition Mode); note: nearly all actives have a fitted effect of over 55% in size
# Details: HEK293 GLP-1R CRE-luciferase, luminescence, 24 h, GLP-1R form is constitutively active; activity change, negative = inhibition: at 38.3 µM (top of the series) unless noted
# How it was run: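 Readout was luciferase luminescence, measured 12 min after detection reagent at room temperature. Beforehand, GLP-1R reporter HEK293 cells had sat 12 h, then received compounds for 24 hr at 37 deg C.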
# % is set by controls: 0 for no effect and ±100 for the full control effect; potency is the fitted concentration of half-maximal effect; tags give direction and shape of the fitted curve.
SMILES,Potency,"activity change, negative = inhibition"
COc1cc(NC(=O)CCN2CCN(c3ccccc3OC)CC2)cc(OC)c1,"inconclusive [inhibitor, single point]",–
CN(C)c1ccccc1C(=O)c1ccccc1N(C)C,"inconclusive [inhibitor, full curve]",–
CCN(CC)c1ncnc2scc(C3COc4ccccc4O3)c12 (stereo unspecified),"inconclusive [inhibitor, single point]",–
C#Cc1ccc(CN2CCN(Cc3ccsc3)C(CCO)C2)cc1 (stereo unspecified),"inconclusive [inhibitor, full curve, poor fit]",–
C=CC[C@@H](CC(=O)N[C@@H](CO)Cc1ccccc1)C(=O)N[C@@H](COC(=O)[C@H](CC=C)CC(=O)OC(C)(C)C)Cc1c[nH]c2ccccc12,"inconclusive [inhibitor, partial curve, poor fit]",–
CN1CCN(c2ccc(C(=O)c3ccccc3)cc2[N+](=O)[O-])CC1,"inconclusive [inhibitor, partial curve, poor fit]",–
COc1ccc(CCNC(=O)c2cccc(S(=O)(=O)N3CCc4ccccc4C3)c2)cc1,"inconclusive [inhibitor, partial curve, poor fit]",–
CCOC(=O)Cn1nc(-c2ccc(F)cc2)cc(Cc2ccccc2)c1=O,active: 11.2 µM,–
CCn1cc(CN2CCC(C(=O)Nc3cccc(-c4cccc(F)c4)c3)CC2)cn1,"inconclusive [inhibitor, single point]",–
O=C(COC(=O)c1ccccc1Br)NC1CCCCCCC1,"inconclusive [inhibitor, single point]",–
Cc1ccc(N2CN=c3s/c(=C\c4cccnc4)c(=O)n3C2)cc1,"inconclusive [inhibitor, partial curve, poor fit]",–
CN(Cc1ccccc1)C(=O)c1cc2c(s1)-c1ccc(Cl)cc1SC2,"inconclusive [inhibitor, single point]",–
O=C(Nc1nnc([C@H]2C[C@H](O)[C@@H](CO)O2)s1)c1cccc(Cl)c1,inactive,–
Cc1cccc(NC(=S)NCCc2c[nH]c3ccccc23)c1,"inconclusive [inhibitor, partial curve, poor fit]",–
CCN1CCN(C(=O)c2cc(COc3ccc(F)cc3F)on2)[C@@H](C)C1=O,"inconclusive [inhibitor, single point]",–
O=C(/C=C/NNC(=O)c1ccc(Cl)cc1)c1ccccc1,"inconclusive [inhibitor, partial curve, poor fit]",–
O=C(Nc1cc(Cl)ccc1N1CCOCC1)c1ccc2c(c1)OCCO2,"inconclusive [inhibitor, single point]",–
Cc1ncc([N+](=O)[O-])n1CCOC(=O)c1ccc(Cl)cc1Cl,"inconclusive [inhibitor, single point]",–
COc1cc(/C=C/c2nc(C#N)c(NC(C)c3ccccc3)o2)cc(OC)c1OC (stereo unspecified),"inconclusive [inhibitor, single point]",–
CC(Nc1ncnc2sccc12)c1ccccc1 (stereo unspecified),"inconclusive [inhibitor, full curve, poor fit]",–
O=C1c2ccccc2C(=O)N1CC(=O)N1c2ccccc2CCc2ccccc21,inactive,–

SMILES,Potency,"activity change, negative = inhibition"
CC(NC(=O)c1ccc2ccccc2n1)c1ccc(Br)cc1 (stereo unspecified),"inconclusive [inhibitor, single point]",–
CC1=C(C(=O)Nc2ccccc2)C(c2ccccc2Cl)n2ncc(C(=O)Nc3cccc(C)c3)c2N1 (stereo unspecified),"inconclusive [inhibitor, single point]",–
CCCc1cc(=O)n2[nH]c(C)c(-c3ccc(Cl)cc3)c2n1,"inconclusive [inhibitor, single point]",–
COc1ccc(OCC(=O)N2c3ccc(C)cc3C3CN(C)CCC32)cc1 (stereo unspecified),inactive,–
Cn1cc(S(=O)(=O)N2CCCCCC2)cc1C(=O)N1CCN(c2ccc(Cl)cc2)CC1,"inconclusive [inhibitor, single point]",–
Clc1ccc(CCNC(c2cccc(Cl)c2)c2nnc(-c3ccccc3)o2)cc1 (stereo unspecified),"inconclusive [inhibitor, single point]",–
COC(=O)c1ccc(COc2ccc(/C=N/N3CCN(C)CC3)cc2)cc1,–,inactive: 29.3% [at 7.66 µM]
CC(NC(=O)COC(=O)c1cc(NS(=O)(=O)c2ccc(Cl)c([N+](=O)[O-])c2)ccc1O)C1CC2CCC1C2 (stereo unspecified),"inconclusive [inhibitor, partial curve, poor fit]",–
Cc1ccc(S(=O)(=O)CCSc2n[nH]c(=O)n2-c2ccc3c(c2)OCCO3)cc1,"inconclusive [inhibitor, single point]",–
Cc1ccc(S(=O)(=O)N2CCN(C(=O)CCc3c[nH]c4ccccc34)CC2)c(C)c1,"inconclusive [inhibitor, partial curve, poor fit]",–
CCc1nc2ccc(C(=O)N(C)Cc3ccccc3)cn2c1N(CC)Cc1cccc(Br)c1,"inconclusive [inhibitor, single point]",–
O=C(Cc1cccc2ccccc12)Nc1nc2ccccc2[nH]1,inactive,–
O=C(C#Cc1ccccc1)c1ccco1,"inconclusive [inhibitor, partial curve, poor fit]",–
CCn1c2ccccc2c2cc(/C=N/O)ccc21,"inconclusive [inhibitor, partial curve]",–
COc1ccc(NC(=O)CN(c2ccc(F)cc2)S(=O)(=O)c2ccccc2)c(OC)c1,"inconclusive [inhibitor, partial curve, poor fit]",–
CCC(=O)N1CCc2nc(-c3ccccc3)sc2C1,inactive,–
CC(NC(=O)Cn1nc(C(F)(F)F)c2c1CCC2)c1ccccc1 (stereo unspecified),"inconclusive [inhibitor, single point]",–
CCC1CN(C(=O)N2CCC(C(=O)NCc3ccc(F)cc3)CC2)c2ccccc2O1 (stereo unspecified),"inconclusive [inhibitor, partial curve]",–
CC(C)C(C(=O)NCc1ccccc1)N(C)Cc1ccc(Cl)c(Cl)c1 (stereo unspecified),"inconclusive [inhibitor, single point]",–
Cc1ccc(C)c(NC(=O)Cn2nnc(C(=O)NCc3ccco3)c2N)c1,"inconclusive [inhibitor, full curve, poor fit]",–
Oc1nc(Nc2cccc(Cl)c2)sc1/C=C1\C=Nc2ccccc21,"inconclusive [inhibitor, partial curve, poor fit]",–

SMILES,Potency,"activity change, negative = inhibition"
COc1ccc(C(CCNC(C)c2ccccc2)C(C)C)cc1 (stereo unspecified),"inconclusive [inhibitor, partial curve, poor fit]",–
CCOC(=O)C1(Cc2cccc(OC)c2)CCCN(Cc2nccn2CC)C1 (stereo unspecified),"inconclusive [inhibitor, partial curve, poor fit]",–
Cc1nc(SCC(=O)N2CCN(c3ccccn3)CC2)c(C#N)c(C)c1C,"inconclusive [inhibitor, partial curve, poor fit]",–
COc1cccc(CN2CCN(C(=O)c3ccc(-c4ccccc4)cc3)CC2)c1,"inconclusive [inhibitor, single point]",–
CC(C)c1ccc(NC(=O)CCc2ccccc2)cc1,"inconclusive [inhibitor, partial curve, poor fit]",–
COc1ccc(Cc2nc3ccc(C(=O)NCc4cc(Br)ccc4OC)cc3o2)cc1,inactive,–
COc1ccc(Cl)cc1-c1cc(C(=O)NCc2cccs2)[nH]n1,"inconclusive [inhibitor, single point]",–
COC(=O)[C@@H]1Cc2c([nH]c3ccccc23)C(C)(C)N1C(=O)CCl,"inconclusive [inhibitor, partial curve, poor fit]",–
CCc1c(C)nc2nncn2c1Nc1cccc(C)c1,inactive,–
Cn1c(CNC(=O)c2ccc(F)cc2)cc2ccccc21,"inconclusive [inhibitor, single point]",–
O=C(NC1CCCN(Cc2ccc(Cl)cc2)C1)c1ccnc(Cl)c1 (stereo unspecified),"inconclusive [inhibitor, single point]",–
Cc1ccc(C)c(S(=O)(=O)/N=C2\C=C(NS(=O)(=O)c3ccccc3)C(=O)c3ccccc32)c1,inactive,–
COc1ccc(-c2cc(C(=O)Nc3ccc(S(=O)(=O)Nc4onc(C)c4C)cc3)c3ccccc3n2)cc1,"inconclusive [inhibitor, partial curve, poor fit]",–
CCN1CCN(CCCNC(=O)c2ccc3c(c2)N(Cc2ccc(C)cc2)CCS3)CC1,"inconclusive [inhibitor, full curve, poor fit]",–
CCN(CC(=O)NCc1ccc(Cl)cc1)C(=O)CSc1ccccc1,"inconclusive [inhibitor, single point]",–
CCN(CC)S(=O)(=O)c1ccc2oc(C(=O)NC3CCCc4ccccc43)c(C)c2c1 (stereo unspecified),active: 8.91 µM,–
CCN1CCN(c2ccc(S(=O)(=O)N3CCCCC3)cc2NC(=O)c2cccc(C(F)(F)F)c2)CC1,"inconclusive [inhibitor, single point]",–
CCc1noc(C)c1C(=O)Nc1nc(-c2cc(C)ccc2C)c(C)s1,"inconclusive [inhibitor, full curve]",–
COc1ccccc1CNC(=O)Nc1nc(C(N)Cc2ccc(Cl)cc2)cs1 (stereo unspecified),"inconclusive [inhibitor, single point]",–
